From the supplement of paper PMC11876631
± gives the standard deviation of the averaged measurements. Laboratory Escherichia coli strains with one amino-acid change in an essential protein, pooled on minimal glucose agar with carbenicillin or gentamicin at twice the control MIC (plus kanamycin and chloramphenicol for the plasmids), 48 h. Fold change of barcode share against drug-free plates; higher = less susceptible. Active = above 20 in both replicates (the paper's putatively resistant). '<' = one read or none on drug, '>' = one read or none on a drug-free plate. Shares are relative, so most strains fall below 1 when a few take over. Listed are strains with at least 15 reads on both drug-free plates, and hits; most hits rest on fewer reference reads. Replicate rank correlation about 0.5. Edits are read from barcodes.

Target: Escherichia coli (laboratory strain)
Assay: barcode share on antibiotic plates over drug-free plates; higher = less susceptible
Description: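 A pool of E. coli strains, each edited to carry one amino-acid change in an essential protein, was grown for 48 h on minimal glucose agar with or without antibiotic; strain barcodes were sequenced; mean of two replicates.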

[1] = antibiotic: carbenicillin, 2× MIC (3.1 µg/mL)
[2] = antibiotic: gentamicin, 2× MIC (MIC 0.45 µg/mL)

Row | Protein | fold change of barcode share [1] | fold change of barcode share [2]
1 | argC V99A (protein) MLNTLIVGASGYAGAELVTYVNRHPHMNITALTVSAQSNDAGKLISDLHPQLKGIVDLPLQPMSDISEFSPGVDVVFLATAHEVSHDLAPQFLEAGCVAFDLSGAFRVNDATFYEKYYGFTHQYPELLEQAAYGLAEWCGNKLKEANLIAVPGCYPTAAQLALKPLIDADLLDLNQWPVINATSGVSGAGRKAAISNSFCEVSLQPYGVFTHRHQPEIATHLGADVIFTPHLGNFPRGILETITCRLKSGVTQAQVAQVLQQAYAHKPLVRLYDKGVPALKNVVGLPFCDIGFAVQGEHLIIVATEDNLLKGAAAQAVQCANIRFGYAETQSLI | 0.478 ± 0.04 | 0.00894 ± 0.0037
2 | argC V99Q (protein) MLNTLIVGASGYAGAELVTYVNRHPHMNITALTVSAQSNDAGKLISDLHPQLKGIVDLPLQPMSDISEFSPGVDVVFLATAHEVSHDLAPQFLEAGCVQFDLSGAFRVNDATFYEKYYGFTHQYPELLEQAAYGLAEWCGNKLKEANLIAVPGCYPTAAQLALKPLIDADLLDLNQWPVINATSGVSGAGRKAAISNSFCEVSLQPYGVFTHRHQPEIATHLGADVIFTPHLGNFPRGILETITCRLKSGVTQAQVAQVLQQAYAHKPLVRLYDKGVPALKNVVGLPFCDIGFAVQGEHLIIVATEDNLLKGAAAQAVQCANIRFGYAETQSLI | 0.48 ± 0.06 | 0.0191 ± 0.02
3 | argC V99D (protein) MLNTLIVGASGYAGAELVTYVNRHPHMNITALTVSAQSNDAGKLISDLHPQLKGIVDLPLQPMSDISEFSPGVDVVFLATAHEVSHDLAPQFLEAGCVDFDLSGAFRVNDATFYEKYYGFTHQYPELLEQAAYGLAEWCGNKLKEANLIAVPGCYPTAAQLALKPLIDADLLDLNQWPVINATSGVSGAGRKAAISNSFCEVSLQPYGVFTHRHQPEIATHLGADVIFTPHLGNFPRGILETITCRLKSGVTQAQVAQVLQQAYAHKPLVRLYDKGVPALKNVVGLPFCDIGFAVQGEHLIIVATEDNLLKGAAAQAVQCANIRFGYAETQSLI | 0.629 ± 0.025 | 0.0473 ± 0.04
4 | argC V99P (protein) MLNTLIVGASGYAGAELVTYVNRHPHMNITALTVSAQSNDAGKLISDLHPQLKGIVDLPLQPMSDISEFSPGVDVVFLATAHEVSHDLAPQFLEAGCVPFDLSGAFRVNDATFYEKYYGFTHQYPELLEQAAYGLAEWCGNKLKEANLIAVPGCYPTAAQLALKPLIDADLLDLNQWPVINATSGVSGAGRKAAISNSFCEVSLQPYGVFTHRHQPEIATHLGADVIFTPHLGNFPRGILETITCRLKSGVTQAQVAQVLQQAYAHKPLVRLYDKGVPALKNVVGLPFCDIGFAVQGEHLIIVATEDNLLKGAAAQAVQCANIRFGYAETQSLI | 0.45 ± 0.1 | 0.0179 ± 0.01
5 | glmS I181W (protein) MCGIVGAIAQRDVAEILLEGLRRLEYRGYDSAGLAVVDAEGHMTRLRRLGKVQMLAQAAEEHPLHGGTGIAHTRWATHGEPSEVNAHPHVSEHIVVVHNGIIENHEPLREELKARGYTFVSETDTEVIAHLVNWELKQGGTLREAVLRAIPQLRGAYGTVIMDSRHPDTLLAARSGSPLVWGLGMGENFIASDQLALLPVTRRFIFLEEGDIAEITRRSVNIFDKTGAEVKRQDIESNLQYDAGDKGIYRHYMQKEIYEQPNAIKNTLTGRISHGQVDLSELGPNADELLSKVEHIQILACGTSYNSGMVSRYWFESLAGIPCDVEIASEFRYRKSAVRRNSLMITLSQSGETADTLAGLRLSKELGYLGSLAICNVPGSSLVRESDLALMTNAGTEIGVASTKAFTTQLTVLLMLVAKLSRLKGLDASIEHDIVHGLQALPSRIEQMLSQDKRIEALAEDFSDKHHALFLGRGDQYPIALEGALKLKEISYIHAEAYAAGELKHGPLALIDADMPVIVVAPNNELLEKLKSNIEEVRARGGQLYVFADQDAGFVSSDNMHIIEMPHVEEVIAPIFYTVPLQLLAYHVALIKGTDVDQPRNLAKSVTVE | 0.693 ± 0.56 | 0.0106 ± 0.0084
6 | glnS F52A (protein) MSEAEARPTNFIRQIIDEDLASGKHTTVHTRFPPEPNGYLHIGHAKSICLNAGIAQDYKGQCNLRFDDTNPVKEDIEYVESIKNDVEWLGFHWSGNVRYSSDYFDQLHAYAIELINKGLAYVDELTPEQIREYRGTLTQPGKNSPYRDRSVEENLALFEKMRAGGFEEGKACLRAKIDMASPFIVMRDPVLYRIKFAEHHQTGNKWCIYPMYDFTHCISDALEGITHSLCTLEFQDNRRLYDWVLDNITIPVHPRQYEFSRLNLEYTVMSKRKLNLLVTDKHVEGWDDPRMPTISGLRRRGYTAASIREFCKRIGVTKQDNTIEMASLESCIREDLNENAPRAMAVIDPVKLVIENYQGEGEMVTMPNHPNKPEMGSRQVPFSGEIWIDRADFREEANKQYKRLVLGKEVRLRNAYVIKAERVEKDAEGNITTIFCTYDADTLSKDPADGRKVKGVIHWVSAAHALPVEIRLYDRLFSVPNPGAADDFLSVINPESLVIKQGFAEPSLKDAVAGKAFQFEREGYFCLDSRHSTAEKPVFNRTVGLRDTWAKVGE | 0.595 ± 0.35 | < 0.0168
